Measured values from PubChem BioAssay AID624417 (National Center for Advancing Translational Sciences (NCATS), 2012).
The campaign covered roughly 410,000 compounds. About 6,400 (1.6%) were called active. Inconclusive means that the source gave no clear call. Such entries were picked first, then a sample of the others. Calls follow the shape of the dose curve; as a rule, active = well fitted inhibition curve with a large enough effect; inconclusive = small, poorly fitted or top-dose-only effect; inactive = no such curve, though single readings can be large or run the other way. No potency is given beside an inconclusive call; the fits are too rough.

Molecular target: Glucagon-like peptide 1 receptor (Homo sapiens) (UniProt P43220)
Assay: qHTS of GLP-1 Receptor Inverse Agonists (Inhibition Mode); also: nearly all actives have a fitted effect of over 55% in size
Settings: HEK293 GLP-1R CRE-luciferase, luminescence, 24 h, GLP-1R form is constitutively active; series mostly up to 38.3 µM
How it was run: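 Luminescence readout: a drop in cAMP-driven luciferase signal flags inverse agonism at a constitutively active GLP-1R stably expressed in HEK293. Compound exposure lasted 24 hr at 37 deg C, 5% CO2.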
Potency is read from the fitted curve at half-maximal effect; tags tell the direction and shape of the fitted curve.

Sequence of UniProt P43220 (P43220 whole entry, looked up): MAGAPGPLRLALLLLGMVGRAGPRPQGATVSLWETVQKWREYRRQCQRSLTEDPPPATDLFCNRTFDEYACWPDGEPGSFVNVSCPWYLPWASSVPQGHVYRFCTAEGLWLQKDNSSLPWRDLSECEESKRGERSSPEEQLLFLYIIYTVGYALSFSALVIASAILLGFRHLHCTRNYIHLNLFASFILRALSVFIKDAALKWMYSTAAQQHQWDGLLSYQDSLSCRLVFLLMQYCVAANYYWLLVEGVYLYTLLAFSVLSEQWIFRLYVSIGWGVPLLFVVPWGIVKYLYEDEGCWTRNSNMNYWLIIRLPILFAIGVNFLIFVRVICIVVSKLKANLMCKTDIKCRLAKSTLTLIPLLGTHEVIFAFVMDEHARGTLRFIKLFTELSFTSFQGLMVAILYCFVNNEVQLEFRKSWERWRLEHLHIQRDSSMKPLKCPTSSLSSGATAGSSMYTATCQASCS

SMILES	Potency
COc1ccc(Cn2c(CO)cnc2SCc2ccc(F)cc2)cc1	inconclusive [inhibitor, full curve]
C=CCOC(=O)C(C#N)c1nc2ccccc2nc1N1CCN(Cc2ccc3c(c2)OCO3)CC1 (configuration not stated)	inconclusive [inhibitor, partial curve, poor fit]
Cc1ccc(Cl)cc1N1CCN(Cc2nnnn2C2CCCCC2)CC1	inconclusive [inhibitor, partial curve, poor fit]
OCCNC(=S)Nc1ccc2c(c1)OCCO2	inactive
CCC(=O)N1N=C(c2ccccc2)CC1c1ccc([N+](=O)[O-])cc1 (configuration not stated)	inconclusive [inhibitor, single point]
Cc1ccc2nc(NC(=O)C3CCCN(S(=O)(=O)c4cccnc4)C3)sc2c1 (configuration not stated)	inconclusive [inhibitor, partial curve, poor fit]
O=C1C(=Cc2ccc(Cl)cc2)Cc2ccccc21	inactive
CC1Cc2ccccc2N1S(=O)(=O)c1cccc(C(=O)N2CCCCC2)c1 (configuration not stated)	inconclusive [inhibitor, single point]
CC1=C(CCN2CCN(C(C)C)C(CCO)C2)C(C)(C)CCC1 (configuration not stated)	inconclusive [inhibitor, single point]
CCN1C(=O)[C@H]2[C@@H](c3ccc(-c4cccc(Cl)c4)c(OC)c3)N3CCCC[C@@]3(C(=O)OC)[C@H]2C1=O	inconclusive [inhibitor, partial curve, poor fit]
O=[N+]([O-])c1ccc(-c2nc(Nc3cccc(O)c3)c3ccccc3n2)cc1	inconclusive [inhibitor, partial curve]
Cc1cccc2c1N(C(=O)CN1C(=O)c3ccccc3C1=O)C(C)(C)c1ssc(=S)c1-2	inconclusive [inhibitor, single point]
Cc1ccccc1CSCc1nc2ccccc2[nH]1	inconclusive [inhibitor, single point]
CCc1ccc2c(c1)/C(=C/C(=O)c1cccs1)C(=O)N2	inconclusive [inhibitor, partial curve, poor fit]
Cc1cc2nc(NC(=O)C3(C)CCN(C)C3)[nH]c2cc1C (configuration not stated)	inconclusive [inhibitor, single point]
COc1ccc(NC(=O)CN(Cc2ccco2)Cc2ccco2)cc1S(=O)(=O)N1CCCCC1	inconclusive [inhibitor, single point]
CN(Cc1ccccc1)c1nc(CN2CCOCC2)nc2scc(-c3ccccc3)c12	inconclusive [inhibitor, partial curve, poor fit]
